Measurements as given in ChEMBL document CHEMBL4888484, “Replenishing the malaria drug discovery pipeline: Screening and hit evaluation of the MMV Hit Generation Library 1 (HGL1) against asexual blood stage Plasmodium falciparum ,using a nano luciferase reporter read-out” (2022).
Among all 150,000 compounds or so, about 540 (0.36%) showed an effect of 50% or more. The list shows a part of the results.

What follows are compounds tested on Plasmodium falciparum (assay: Primary screen in NF54 nanoGlo assay, in single point, at 2uM, 72h; a lower Z score goes with more inhibition). Conditions: timepoint 72 hour.
Format: functional, Erythrocyte
For `COc1ccc(CC(=O)N[C@H]2CCN(c3nccs3)C2)cc1OC`, the “% Inhibition” value was 4% and the Z score was -0.73. With `CCc1nnc(CNC2CCCCC2Oc2cccc(C)c2)o1` (centres undefined) the “% Inhibition” value was -5% and the Z score was 0.72. With `COc1cccc(C(=O)N2Cc3cc(NC(C)=O)ccc3C[C@H]2C(=O)N2CCCC2)c1` the “% Inhibition” value was -9% and the Z score was 1.46. `O=C(Cc1c(F)cccc1Cl)N1CC[C@H](c2ccc3c(c2)OCO3)C1` was tested, and the “% Inhibition” value was 8% and the Z score was -1.08. With `C[C@H]1c2ccccc2CN1S(=O)(=O)c1cccc(C(=O)NC2CC2)c1` the “% Inhibition” value was -13% and the Z score was 1.91. In the case of `Cc1csc(C(=O)N[C@H]2CCN(c3ccc4nncn4n3)C2)c1`, the “% Inhibition” value is reported as -14% and the Z score is reported as 2.25. With `CC(=O)N1CCC(C(=O)N2CCCCCCC2)CC1` the “% Inhibition” value was -1% and the Z score was 0.11. With `Cc1ccc(N(C)C)cc1NC(=O)N1CCCN([C@H]2COC[C@@H]2O)CC1` the “% Inhibition” value was -2% and the Z score was 0.38. For `O=C(NCc1csc2c1CCCC2)c1cn(CCN2CCNCC2)nn1`, the “% Inhibition” value was -3% and the Z score was 0.37. With `c1cc(-c2cnccn2)cc(-c2ccn(Cc3nnc(C4CC4)o3)n2)c1` the “% Inhibition” value was 10% and the Z score was -1.25. With `Oc1ccc2c(c1)Oc1ncn3nc(-c4ccc(Cl)cc4Cl)nc3c1[C@H]2c1ccccc1` the “% Inhibition” value was -2% and the Z score was 0.26. `COc1ccccc1N1CCN(C(=O)c2cccc(N(C)C)c2)CC1` was tested, and the “% Inhibition” value was -6% and the Z score was 1.05. With `Cc1cccc(N2CCN(C(=O)c3c(-c4cncnc4)cc(=O)n4c3CCC4)CC2)c1C` the “% Inhibition” value was -3% and the Z score was 0.39. In the case of `Clc1cnc(N2CCCC2C2CCCO2)nc1N1CCCC1C1CCCO1` (centres undefined), the “% Inhibition” value is reported as -3% and the Z score is reported as 0.51. `Cc1nccnc1[C@H](C)NCc1ccc(C2CC2)cc1F` was tested, and the “% Inhibition” value was -1% and the Z score was 0.15. For `CN(C)CCn1ccc(NC(=O)N2CCN(c3nccc4sccc34)CC2)n1`, the “% Inhibition” value was -30% and the Z score was 3.55. For `COc1ccccc1NC(=O)COc1ccccc1C(=O)c1cnn(-c2ccccc2)c1`, the “% Inhibition” value was -18% and the Z score was 2.87. `CCN(CC(F)(F)F)C(=O)COc1cncc(Br)c1` was tested, and the “% Inhibition” value was -4% and the Z score was 0.84. `O=C(C[C@H]1C(=O)Nc2ccccc2N1C(=O)c1ccco1)Nc1ccc(Cl)c(Cl)c1` was tested, and the “% Inhibition” value was -4% and the Z score was 0.55. `CCc1ccc(OCC(=O)c2ccc3c(c2)N(Cc2ccc(C(=O)NCCOC)o2)C(=O)CO3)cc1` was tested, and the “% Inhibition” value was 2% and the Z score was -0.37. `CCOC[C@H]1CCCN1Cc1nncn1C(C)C` was tested, and the “% Inhibition” value was -1% and the Z score was 0.28. With `O=C(NCCN1Cc2cc(F)ccc2OCC1=O)c1cccc(OC(F)(F)F)c1` the “% Inhibition” value was -10% and the Z score was 1.79. With `CN(CC(=O)N1CCN(CC2CCCC2)C(=O)C1)S(=O)(=O)c1ccc(C#N)cc1` the “% Inhibition” value was -8% and the Z score was 1.08. With `CCn1nc(C(=O)Nc2ccc(O)nn2)cc1C1CC1` the “% Inhibition” value was -4% and the Z score was 0.88. `CC(C)c1ccc(N2C(=O)CC[C@@]2(C)C(=O)NC2CCCC2)cc1` was tested, and the “% Inhibition” value was -11% and the Z score was 1.2. In the case of `CCCN(C)S(=O)(=O)c1cc(-c2nnc(C)o2)co1`, the “% Inhibition” value is reported as -10% and the Z score is reported as 1.3. With `COC(=O)CC[C@@H]1CN(Cc2ccccc2F)CC[C@@H]1N1CCN(c2cccc(C(F)(F)F)c2)CC1` the “% Inhibition” value was 8% and the Z score was -1.04. With `CCCN(Cc1ccsc1)C(=O)c1snnc1C` the “% Inhibition” value was -13% and the Z score was 1.91. `CCC(CC)C(=O)NCc1nc(C)cc(N(C)C)n1` was tested, and the “% Inhibition” value was -1% and the Z score was 0.16. `Cc1nc2ccccn2c1CN(C)CCc1cnn(C)c1` was tested, and the “% Inhibition” value was 0% and the Z score was -0.01. In the case of `C[C@H](NC(=O)Nc1cc2n(n1)CCN(C)C2=O)c1ccc(C#N)cc1`, the “% Inhibition” value is reported as -10% and the Z score is reported as 1.91. For `Cc1cc(C(=O)NCCn2c(=O)n(Cc3ccc(F)cc3)c3cccnc32)no1`, the “% Inhibition” value was -14% and the Z score was 1.58. `CC(C)(Oc1ccc2c(c1)CCC2)C(=O)N1CCc2[nH]cnc2[C@@H]1C(=O)O` was tested, and the “% Inhibition” value was -10% and the Z score was 1.25. With `Cn1ccnc1[C@H]1OCCC[C@@H]1C(=O)Nc1cc2cc[nH]c2cn1` the “% Inhibition” value was -15% and the Z score was 2.37. In the case of `CN(C(=O)c1cnn(-c2ccc(F)cc2F)c1)c1cccc2ncccc12`, the “% Inhibition” value is reported as -31% and the Z score is reported as 3.65. In the case of `CCN(CC)C(=O)[C@@H]1C[C@@H](NC(=O)c2ccc(N3CCCC3)cc2)CN1C`, the “% Inhibition” value is reported as 3% and the Z score is reported as -0.46. In the case of `CCNc1ncc(-c2nccn2-c2cc3c(cc2OC)n(C)c(=O)n3C)cn1`, the “% Inhibition” value is reported as 6% and the Z score is reported as -1.16. For `O=C(Cn1[nH]c2ccccc2c1=O)NC1(Cc2ccc(Cl)cc2)CC1`, the “% Inhibition” value was -6% and the Z score was 0.86. `O=C(c1ccc(F)cc1)C1CCCN(C(=O)C2CCS(=O)(=O)C2)C1` (centres undefined) was tested, and the “% Inhibition” value was -14% and the Z score was 1.29. `CCn1nc(CC(C)C)cc1C(=O)N1C[C@H]2CCC[C@@H]1C2` was tested, and the “% Inhibition” value was -1% and the Z score was 0.24. In the case of `Cc1cnc(NC(=O)CC2CC3CCC2C3)s1` (centres undefined), the “% Inhibition” value is reported as -2% and the Z score is reported as 0.23. `CC(=O)N1CCC([C@H]2c3nccn3CCCN2Cc2ccccc2)CC1` was tested, and the “% Inhibition” value was 8% and the Z score was -1.13. In the case of `O=C(Nc1nnc(C2CC2)s1)c1cccc(NC(=O)c2ccco2)c1`, the “% Inhibition” value is reported as -21% and the Z score is reported as 1.95. `CC1CN(C(=O)C2CCCN(CC(F)F)C2)C(C)CN1C` (centres undefined) was tested, and the “% Inhibition” value was -1% and the Z score was 0.22. `CC(NC(=O)[C@H]1CC[C@@H](C(N)=O)C1)c1cc(Cl)cc(Cl)c1F` (some centres undefined) was tested, and the “% Inhibition” value was 4% and the Z score was -0.77. For `Cc1[nH]c2ccccc2c1C(=O)[C@H](C#N)C(=O)c1ccc2c(c1)OCO2`, the “% Inhibition” value was -22% and the Z score was 2.01. With `Cc1ccn2cc(C(=O)N(C)CC3CC3)nc2c1` the “% Inhibition” value was -14% and the Z score was 1.26. In the case of `Cc1cccc(NC(=O)Cn2c(=O)n(CCc3cccs3)c(=O)c3ccccc32)c1C`, the “% Inhibition” value is reported as 24% and the Z score is reported as -2.74. `Cc1ccc(C(=O)N2CCN([C@H](C(=O)N(C)Cc3ccco3)C3CCCC3)CC2)cc1` was tested, and the “% Inhibition” value was -7% and the Z score was 0.88. For `CCC(=O)Nc1c(-c2ccncc2)nsc1C(=O)N1CCN(c2ccccc2C)CC1`, the “% Inhibition” value was -10% and the Z score was 1.61. With `CCC[C@H](NC(C)=O)c1nc(-c2c[nH]c3ccccc23)n[nH]1` the “% Inhibition” value was -10% and the Z score was 1.25. For `COC(=O)c1cc(OC)ccc1OC(=O)CN(C)S(C)(=O)=O`, the “% Inhibition” value was -9% and the Z score was 1.36.
